Measurements published in article PMC12040169 (PLOS Biology, 2025).
This is one part of the list.

System: T1, C. trachomatis L2/434/Bu expressing GFP (CTL2-GFP)
T1 construct: L2/434/Bu GFP intracellular growth in HeLa cells
Set-up: species or system HeLa; C. trachomatis total inclusion area by high-content imaging, normalised to DMSO
Details: total inclusion area; 28.5 h, 10 µM; inhibitor
Procedure, shortened: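 High-content imaging followed the bulk GFP/resorufin measurement: fixed, Hoechst-stained cells were scored for GFP inclusions and host nuclei per well. Total inclusion area and count served as growth proxies, nuclei number as the viability proxy. MIC calculation matched the bulk assay.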

SMILES | % of control remaining
CN(c1cccc(C#N)c1)C1CCN(c2nc3c(cnn3C)c(=O)[nH]2)C1 (stereo not drawn) [CBK305462] | 75.085
Cc1cc(SCC(=O)Nc2cccc3ccccc23)nc2c(C)cccc12 [CBK268005] | 106.835
Cc1cc2c(cc1S(=O)(=O)NCCOc1cccc(C(=O)O)c1)OCC(=O)N2 [CBK299770] | 113.287
CCCn1ccnc1CNc1nc(C(C)(C)C)nc2c1cnn2C [CBK306739] | 72.1813
CCCCC(=O)NC(Nc1cc(C)ccn1)(C(F)(F)F)C(F)(F)F [CBK009331] | 92.6744
C=C(C)Cn1nc(C)c(CN(C)CCN2CCCCC2)c1C [CBK282483] | 127.201
CN(C)c1ccc(C(=O)N2CC[C@@H](CC(=O)O)[C@@H](CC3=NCCc4ccccc43)C2)cc1 [CBK289159] | 113.752
O=C(c1sc2ccccc2c1Cl)N1CCN(CCN2C(=O)c3cccc4cccc(c34)C2=O)CC1 [CBK262557] | 93.8808
CCOC(=O)c1cnn(C2CCCN(Cc3cnnn3C)C2)c1 (stereo not drawn) [CBK305122] | 84.3938
CN(C)S(=O)(=O)NCCc1ccc(S(N)(=O)=O)cc1 [CBK022388] | 67.9017
CN1CCCN(Cc2ccc3c(c2)c(=O)c(C(=O)NCc2ccc(Cl)cc2)cn3C)CC1 [CBK018019] | 85.6476
CC(=O)N1CCC(Cn2nc(-c3ccccc3)ccc2=O)CC1 [CBK282405] | 66.0554
Cc1cc(C(=O)N2CCC(c3nnc(CN(C)C)n3C)CC2)ccc1F [CBK306748] | 69.7336
FC(F)(F)Oc1ccc(-c2c[nH]c([C@@H]3COCCN3Cc3c[nH]cn3)n2)cc1 [CBK289303] | 75.7121
CCOC(=O)CN1C(=O)S/C(=C/c2cc(Cl)c(OCC(=O)O)c(Br)c2)C1=O [CBK264614] | 125.295
NC(=O)CN1CC2(CCN(CCS(=O)(=O)c3ccccc3)CC2)c2ccccc21 [CBK126786] | 93.715
CN1CCN(C(=O)Cc2csc(-c3ccc(Cl)cc3)n2)CC1 [CBK107301] | 86.4287
COc1ccc(C(=O)N2CCC3(CCN(CCN4CCCCC4)C3)C2)cc1OC (stereo not drawn) [CBK137113T] | 113.299
CC(C)(C)c1ccc(C(=O)Nc2cnn(CCCC(=O)O)c2)cc1 [CBK269929] | 110.351
COc1cc(C)c(Nc2cccc(-c3ccc(O)cc3)n2)cc1OC [CBK037608] | 81.3844
COCCNS(=O)(=O)c1ccc(Br)c(C(=O)N(C)Cc2cnn(C)c2)c1 [CBK304795] | 53.3427
N#Cc1cn(Cc2ccco2)c(=O)[nH]c1=O [CBK010407] | 99.8401
COC(=O)C1CCN(C(=O)c2ccc(Oc3cccc(Br)c3)nc2)CC1 [CBK304235] | 37.4699
CN1C[C@@H](NC(=O)NCc2ccccc2)C[C@H]1c1nc(-c2cncnc2)no1 [CBK288878] | 110.687
O=C1N=C(NC2C3CC4CC(C3)CC2C4)OC12CCCC2 (stereo not drawn) [CBK113576] | 86.8022
NC(=O)c1cccc(-n2ncc(-c3cccnc3)n2)c1 [CBK112806] | 90.8708

SMILES | % of control remaining
CC(=O)NC(c1ccccn1)C1CCCN(C(=O)C(C)(C)C)C1 (stereo not drawn) [CBK285101] | 85.3919
c1ccc(-c2oc3ncn4nc(COc5cccc6ccccc56)nc4c3c2-c2ccccc2)cc1 [CBK262898] | 121.017
c1ccc(-c2cc3nccc(-c4ccccc4)n3n2)cc1 [CBK287871] | 97.2647
O=C(OCCCc1cccnc1)c1cc(=O)[nH]c2ccccc12 [CBK295631] | 131.409
c1cc(Sc2nccnc2N2CCCC2)ccn1 [CBK093807] | 91.2274
CN(Cc1ccc(-c2ccc(S(C)(=O)=O)cc2)nc1)C1CCN(C(=O)CC(F)(F)F)CC1 [CBK164098T] | 80.6668
O=c1[nH]c2ncc(-c3cccc4ccccc34)nc2n1Cc1cccnc1 [CBK064274] | 83.0993
O=C(c1ccco1)N1CCN(c2cncc(-c3cccs3)n2)CC1 [CBK065518] | 123.145
CC(C)c1cc(C(=O)NC(c2ccccc2)c2ccnn2C)n(C)n1 (stereo not drawn) [CBK282535] | 116.215
O=C(O)CCc1ccc(-c2cccs2)n1CCc1ccccc1 [CBK265983] | 75.3637
Cc1nc2ccc(C(=O)N(C)CCN(C)C)cn2c1N(C)C(=O)c1cccs1 [CBK146528] | 99.6016
CCN1CCN(C(=O)CCn2c(C(F)F)cc3cccnc32)CC1 [CBK285026] | 88.441
Cc1noc2nc(C3CCN(C(=O)C4CC4C)CC3)cc(C(F)F)c12 (stereo not drawn) [CBK285307] | 74.8059
CC1CCCCN1C(=O)Cn1ncn2c(cc3ccsc32)c1=O (stereo not drawn) [CBK284201] | 60.4182
CC1CCc2nn(CCNC(=O)Cc3ccccc3F)c(=O)cc2C1 (stereo not drawn) [CBK284482] | 109.871
O=[N+]([O-])c1ccc(N2CCN(S(=O)(=O)c3ccc4ccccc4c3)CC2)c(C(F)(F)F)c1 [CBK264827] | 95.0081
Cc1cc(C)n(-c2ccc(N3CCC4(CC3)OCCO4)nn2)n1 [CBK305255] | 24.3445
COc1cccc(C(=O)Nc2cnn(CCCC(=O)O)c2)c1 [CBK269879] | 80.332
COC(=O)c1ccc(N2CCOCC2)c(NC(=O)COc2ccccc2)c1 [CBK270222] | 111.946
O=[N+]([O-])c1ccc(CN2CCC(Oc3nccnc3OCC3COc4ccccc4O3)CC2)cc1 (stereo not drawn) [CBK082984T] | 79.0657
CCNC(=O)c1cnc(-c2ccc(F)cc2)c(-c2ccncc2)c1 [CBK037477] | 146.266
CC(SCc1ccccc1)C(=O)NC(C)c1ccccc1 (stereo not drawn) [CBK263772] | 87.8701
O=C(Nc1ccc(Cl)c(C(=O)O)c1)c1cccc(-n2cnnc2)c1 [CBK270016] | 101.371
CN1CCN(C(=O)c2[nH]c3ccccc3c2NS(=O)(=O)c2cc(F)c(Br)cc2F)CC1 [CBK050051] | 98.4392
Cc1ccc(NC(=O)CSc2nc3[nH]ncc3c(=O)[nH]2)cc1 [CBK287675] | 78.1202
O=C(COc1ccc(-c2ccccc2)cc1)N1CCN(S(=O)(=O)c2ccc([N+](=O)[O-])cc2)CC1 [CBK264297] | 123.391

SMILES | % of control remaining
O=C(O)CC1CCC2(CC1)Cc1ccccc1C2 [CBK012397] | 104.806
Cc1ccccc1-c1noc(CSc2nnc(-c3ccncc3)n2-c2ccc(F)cc2)n1 [CBK269089] | 94.1764
Cc1ccc(C(C)C)c(OC(=O)c2ccc3nccnc3c2)c1 [CBK269114] | 37.2997
O=C1CCC(=O)N1CCn1c(=O)n(C(=O)CCCOc2ccc(Cl)cc2)c2ccccc21 [CBK106496] | 93.6064
N#Cc1cccc(NC(=O)NC[C@H]2C[C@@H]3CC[N@]2C[C@@H]3CN2CCCCC2)c1 [CBK288765] | 110.837
C[C@H](NC1=NC(=O)[C@@](C)(C(C)(C)O)S1)c1ccc(F)cc1 [CBK138436] | 82.108
Cc1ccc(C2(O)CCN(C(=O)CC3CCN(C(=O)CC4CCCCC4)CC3)C2)cc1 (stereo not drawn) [CBK286132] | 140.982
CC12CN3CC(C)(CN(C1)C3c1ccc(O)cc1)C2O (stereo not drawn) [CBK262663] | 100.253
C=CCNc1nc(N)c(/C(N)=N/C#N)s1 [CBK019028] | 80.4708
CCOc1ccc(-c2ccnc(N3C[C@@H](C)O[C@@H](C)C3)n2)cc1C(=O)O [CBK306584] | 65.0008
Cc1ccc([N+](=O)[O-])cc1NC(=O)C1CCCN1S(=O)(=O)c1ccc(Cl)cc1 (stereo not drawn) [CBK033769] | 89.6108
CCOc1ccc(OC(=O)C2CCN(C(=O)CC(C)C)CC2)cc1 [CBK154228] | 80.2739
CCN(CC(=O)NCc1cccnc1)S(=O)(=O)c1ccc2ccccc2c1 [CBK300514] | 105.735
CCCN1CCN(c2ncnc3scc(C4COc5ccccc5O4)c23)CC1 (stereo not drawn) [CBK266590] | 106.8
CCNc1nc(=S)[nH]c2sc3c(c12)CCC(C)C3 (stereo not drawn) [CBK086242] | 45.5939
CCn1c(C)nc2cc(S(N)(=O)=O)ccc21 [CBK260950] | 85.0469
O=C1Nc2c(cnn2-c2ccc(Cl)cc2)C2=NCCN12 [CBK284341] | 64.3444
CN(c1cncc(Cl)n1)C1CCN(Cc2ccccc2)CC1 [CBK012767F] | 53.0342
COc1ccc(CCNC(=O)N(C)C2CCN(C)C2)cc1OC (stereo not drawn) [CBK156007] | 88.2717
O=C(NC(c1ccccc1)c1ccccn1)C1CCN(C(=O)Oc2ccccc2)CC1 (stereo not drawn) [CBK060105] | 94.8425
CC(C)(CN)CN(Cc1ccccc1Br)C(=O)NC(c1ccccc1)c1ccccc1 [CBK002488C] | 22.0175
O=C(NCCNc1ccc(Cl)cc1[N+](=O)[O-])c1c(F)cccc1F [CBK269643] | 87.3959
CSc1ncc(Cl)c(C(=O)Nc2sc3c(c2C(=O)NCc2ccco2)CCC3)n1 [CBK268991] | 95.0329
Cc1n[nH]c(C)c1CNC(=O)c1[nH]c2c(Cl)cccc2c1C [CBK282534] | 117.52
Cc1cc2c(s1)c1cnn(CCN3CCCC3)c(=O)c1n2C [CBK284180] | 100.562
O=C(O)CCC(=O)N1CCN(c2ncccn2)CC1 [CBK057422] | 54.979
